Laboratory results taken from paper PMC4336329 (PLoS ONE, 2015).
In all, about 310,000 compounds went through this assay and about 14,000 (4.5%) showed an effect of 50% or more. Effects have a minus sign here. The list shows a part of the results.

biological target: human ether-à-go-go-related gene (hERG) potassium channel (human, UniProt Q12809); assay: primary screen, population patch clamp on CHO cells stably expressing hERG
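Further: peak tail current of the secondary pulse compared with the same well before compound.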

human ether-à-go-go-related gene (hERG) potassium channel, sequence (Q12809 whole entry, looked up): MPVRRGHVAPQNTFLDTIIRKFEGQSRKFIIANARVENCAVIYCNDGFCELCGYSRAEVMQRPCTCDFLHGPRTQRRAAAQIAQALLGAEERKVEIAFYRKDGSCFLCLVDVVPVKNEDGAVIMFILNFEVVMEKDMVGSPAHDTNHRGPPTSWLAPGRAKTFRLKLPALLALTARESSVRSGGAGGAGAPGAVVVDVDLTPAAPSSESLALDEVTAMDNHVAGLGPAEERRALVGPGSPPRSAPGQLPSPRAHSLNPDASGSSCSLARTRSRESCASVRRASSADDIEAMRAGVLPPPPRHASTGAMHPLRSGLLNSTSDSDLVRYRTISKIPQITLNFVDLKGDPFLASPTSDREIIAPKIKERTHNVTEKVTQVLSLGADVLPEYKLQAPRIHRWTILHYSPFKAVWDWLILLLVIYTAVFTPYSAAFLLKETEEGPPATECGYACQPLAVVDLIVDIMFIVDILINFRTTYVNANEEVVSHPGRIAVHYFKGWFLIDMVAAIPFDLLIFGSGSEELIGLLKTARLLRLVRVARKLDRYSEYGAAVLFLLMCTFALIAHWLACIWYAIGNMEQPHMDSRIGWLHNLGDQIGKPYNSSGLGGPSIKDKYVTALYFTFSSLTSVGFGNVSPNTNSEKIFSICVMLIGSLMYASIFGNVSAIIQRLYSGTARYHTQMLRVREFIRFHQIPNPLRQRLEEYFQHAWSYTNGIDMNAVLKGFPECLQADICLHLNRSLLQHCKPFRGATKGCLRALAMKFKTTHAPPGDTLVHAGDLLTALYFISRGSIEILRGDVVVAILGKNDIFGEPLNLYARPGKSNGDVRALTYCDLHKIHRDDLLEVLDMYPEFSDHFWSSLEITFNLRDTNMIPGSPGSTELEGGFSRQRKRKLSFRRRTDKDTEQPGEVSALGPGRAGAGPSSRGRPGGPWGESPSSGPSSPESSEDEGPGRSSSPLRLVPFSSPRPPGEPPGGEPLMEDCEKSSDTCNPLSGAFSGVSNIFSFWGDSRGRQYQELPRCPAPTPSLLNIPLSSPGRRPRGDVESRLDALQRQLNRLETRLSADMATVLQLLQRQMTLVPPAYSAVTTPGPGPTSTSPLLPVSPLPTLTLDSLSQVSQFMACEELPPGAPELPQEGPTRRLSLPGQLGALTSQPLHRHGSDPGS

Row | Compound | hERG current change (%, negative = inhibition) at 10uM
1 | COCCn1c(=NC(=O)c2ccc(S(=O)(=O)N3CCCc4ccccc43)cc2)sc2cc(S(C)(=O)=O)ccc21 | 3.1%
2 | CCSc1nnc2c(n1)OC(C)(C)Nc1ccccc1-2 | 15.4%
3 | O=C(COC(=O)c1cccs1)Nc1ccccc1[N+](=O)[O-] | 3.28%
4 | CCCNC(=O)Cn1cnc2sc(C(=O)N3CCCC(C(=O)OCC)C3)c(C)c2c1=O (stereo not shown) | 9.74%
5 | O=C(NCc1ccco1)c1c2c(nc3ccccc13)CCC2 | -24.8%
6 | CC(C)(C)c1nnc(NC(=O)CCn2cnc3ccccc3c2=O)s1 | 5.12%
7 | NC(=O)c1ccc(NC(=O)COC(=O)CCc2ccc(S(=O)(=O)N3CCCCC3)cc2)cc1 | 14.6%
8 | CC(C)C[C@H](NC(=O)Nc1cccc(Br)c1)C(=O)O | 10.3%
9 | COc1ccc(CCC(=O)Nc2ccc(S(=O)(=O)Nc3nccc(C)n3)cc2)cc1 | 44.2%
10 | CC1=Nc2ccc(C)cc2/C1=C/c1c(N)n2oc(C)cc2nc1=O | 18.9%
11 | CC1(C)CC(=O)CC(C2(O)C(=O)N(Cc3ccccc3)c3ccccc32)O1 (stereo not shown) | 7.55%
12 | CCN(CC)S(=O)(=O)c1ccc2[nH]c(=O)cc(C(=O)NCC(c3ccco3)N3CCCC3)c2c1 (stereo not shown) | -10.8%
13 | CC(=O)Nc1ccc(-c2nc3cc(Cl)ccc3o2)cc1 | 17.6%
14 | NS(=O)(=O)c1ccc(NC(=S)N2CCN(c3ccc(Cl)c(Cl)c3)CC2)cc1 | 11.8%
15 | S=C(Nc1nc2c(s1)CCCC2)NC1CC1 | 9.12%
16 | COc1ccccc1C(OC(=O)c1ccco1)C(=O)NC(C)(C)C (stereo not shown) | -3.56%
17 | Cc1nn(Cc2c(F)c(F)c(F)c(F)c2F)c(C)c1NC(=O)c1ccc(COc2ccc(Cl)cc2Cl)o1 | 13.3%
18 | Cc1cccc(NC(=O)CCN2CCOCC2)c1 | 4.24%
19 | Cc1nn(CC(=O)NCc2ccc(-n3cccn3)cc2)c(C)c1[N+](=O)[O-] | -2.8%
20 | CN1CC(=O)N=C1N | 8.56%
21 | CCS(=O)(=O)N1Cc2ccccc2CC1C(=O)NCC12CC3CC(CC(C3)C1)C2 (stereo not shown) | -34.7%
22 | CCN1C(=O)[C@H]2[C@@H](c3ccc(-c4ccccc4)cc3)N[C@@](C)(C(=O)OC)[C@H]2C1=O.O=C(O)C(F)(F)F | 10.6%

Row | Compound | hERG current change (%, negative = inhibition) at 10uM
23 | Cc1cccc2c(CC(=O)Nc3ccccc3)noc12 | -0.38%
24 | COc1ccc(N2C(=O)C(OC(C)=O)C2c2ccc(C)cc2)cc1 (stereo not shown) | 17.3%
25 | CC(=NC1CC1)c1c(-c2ccccc2)[nH]n(-c2nc3ccccc3s2)c1=O | 9.63%
26 | O=C(CN1CCCCCC1)Nc1ccccc1F.O=C(O)C(=O)O | 9.38%
27 | COc1ccccc1C(=O)Nc1nc2ccccc2s1 | 24.5%
28 | COc1ccc(-c2noc(CN3CCCCC3c3nccn3C)n2)cc1 (stereo not shown) | -6.83%
29 | CC(C)N(C)S(=O)(=O)c1ccc(Cl)c(C(=O)O)c1 | 8.12%
30 | CCN1CCN(c2ccc(NC(=O)COc3ccccc3Cl)cc2)CC1 | -40.7%
31 | CC(=O)Nc1cccc(NC(=O)CSc2nc(=O)n(CCN3CCOCC3)c3c2CCC3)c1 | -2.96%
32 | CC(C)NCc1nnc(-c2ccc(Cl)cc2)o1 | 15.9%
33 | CCc1ccc2oc(-c3cc(N=Cc4cccc(OC)c4O)ccc3O)nc2c1 | 24.3%
34 | N#CC(c1ccccn1)c1ncc(C(F)(F)F)cc1Cl (stereo not shown) | 23.5%
35 | Cc1ncsc1CCSc1nc2ccccc2c(=O)n1C | -25.4%
36 | CCOC(=O)c1sc(C)c2c1NC(c1ccc(Cl)cc1)NC2=O (stereo not shown) | -5.32%
37 | CC(=O)c1cccc(NS(=O)(=O)c2cc3c(cc2C)N(C(C)=O)CCO3)c1 | 14.3%
38 | Cc1cc(/C=N/NC(=O)CC#N)c(C)n1-c1ccc([N+](=O)[O-])cc1 | 3.13%
39 | CC(CC(=O)Nc1ccncc1)c1ccccc1 (stereo not shown) | 5.85%
40 | C=C(C)n1c(=O)n(Cc2ccc(C)cc2)c2ccccc21 | 5.7%
41 | COc1ccc(S(=O)(=O)N2CCCC(C(=O)N3CCCC3)C2)cc1OC (stereo not shown) | 4.14%
42 | Cn1c(=O)[nH]c2ncccc21 | 29.1%
43 | Cc1[nH]c2ccc(C(=O)NCCCN3CCOCC3)cc2c1C | 5.18%
44 | O=C(CN1CCCCCCC1)N/N=C/c1ccccc1F | -35.6%

Row | Compound | hERG current change (%, negative = inhibition) at 10uM
45 | COc1ccc(NC(=O)COC(=O)CCCN2C(=O)c3ccccc3C2=O)cc1Cl | -47.2%
46 | CC(=O)c1ccc(OCc2cc(C(=O)N(C)Cc3nc4c(C)cccc4[nH]3)no2)cc1 | -10.7%
47 | O=C(/C=C/c1ccc(Cl)cc1)N1CCN(c2ccccc2[N+](=O)[O-])CC1 | -75.4%
48 | Cc1cc(NC(=O)Cn2nnc(-c3ccccc3NC(=O)c3ccccc3F)n2)no1 | 12.5%
49 | CC(=O)c1cc2c(cc1NC(=O)CSc1ccc(S(=O)(=O)N(C)C)cn1)OCO2 | -4.15%
50 | CC(=O)CSc1nsc(SCC(C)=O)c1C#N | 17.2%
51 | CC(=O)N1C(c2ccccc2)CC(=O)OC1c1ccc2c(c1)OCO2 (stereo not shown) | 15.9%
52 | CCCCOc1ccc(S(=O)(=O)N2CCCCC2)cc1 | -1.17%
53 | CCC(CC)c1nnc(NC(=O)c2cccnc2SC)s1 | 15.4%
54 | O=C(CNCCCO)Nc1cc(C(F)(F)F)cc(NC(=O)CNCCCO)c1Cl | -3.98%
55 | O=C(c1ccccc1NS(=O)(=O)c1ccc(Br)cc1)N1CCOCC1 | -0.073%
56 | Cc1ccc(-n2nnc3c(=O)n(Cc4cc(C)ccc4C)cnc32)cc1 | 3.64%
57 | N#C/C(=C(/O)c1ccc2c(c1)OCO2)c1nc2cc(C(F)(F)F)ccc2s1 | 33.5%
58 | CC(C)(C)NC(=O)C(c1ccccn1)N(C(=O)C1CSC(=O)C1)c1ccccc1F (stereo not shown) | 18%
59 | C=CCN1C(=O)/C(=c2\sc3nc(=O)c(Cc4ccccc4)nn3c2=O)c2ccccc21 | 13.5%
60 | Cc1ccc(C(=O)OCC(=O)NC(=O)c2ccccc2)o1 | -2.91%
61 | CCOC(=O)N1CCN(C(=O)/C(=C/c2ccc(OC)cc2)NC(=O)c2ccccc2)CC1 | -68.4%
62 | CN1CCc2c(sc3c2C(=O)NC(c2ccc(-c4ccc(Cl)cc4)o2)N3)C1 (stereo not shown) | -24.1%
63 | CCCCn1c(SCC(=O)c2ccc(O)cc2O)nc2cc(S(N)(=O)=O)ccc21 | -2.55%
64 | Cc1ccc(NC(=O)COc2coc(CN3CCc4ccccc43)cc2=O)cc1Cl | 8.03%
65 | CCc1nc(SCC(=O)Nc2ccccc2OC)c2c(C)c(C)sc2n1 | 16.9%
66 | CC1CCC2C(=O)N(c3ccccc3OC(=O)c3ccccc3F)C(=O)C2C1 (stereo not shown) | -10.3%

Row | Compound | hERG current change (%, negative = inhibition) at 10uM
67 | O=c1cc(N2CCCCC2)nc2n1CCCS2 | 10.9%
68 | CCCCNc1ccc(C(CC(N)=O)NC(=O)c2ccccc2)cc1[N+](=O)[O-] (stereo not shown) | -3.54%
69 | CC(C)C(NC(=O)c1ccccc1)C(=O)OCC(=O)N1CCN(c2ccccc2)CC1 (stereo not shown) | -2.47%
70 | Cc1ccc(NC(=O)Cn2cccc2C2=NC(c3ccccc3)CO2)c(C)c1 (stereo not shown) | -1.88%
71 | O=C(Oc1ccc(NC(=O)c2cc3c(cc2Br)OCO3)cc1)c1ccccc1 | 12.3%
72 | CCCCCCOc1ccc(N2C(=O)CC(N3CCN(CCN=CC4C(=O)CC(C)(C)CC4=O)CC3)C2=O)cc1 (stereo not shown) | -32.5%
73 | C/C(N)=C(/C#N)C(=O)COC(=O)C(c1ccccc1)c1ccccc1 | 32.8%
74 | CC(C)COC(=O)C(C#N)c1nc2ccccc2nc1N1CCN(Cc2ccccc2)CC1 (stereo not shown) | -12%
75 | COc1ccc(-c2[nH]ncc2/C=N/NC(=O)c2cc(Br)ccc2O)c(OC)c1 | 14.8%
76 | CSc1nnc2c(n1)c(C)nn2-c1ccc(C)cc1 | -8.25%
77 | Cc1cccc(NC(=O)Nc2ccccc2)n1 | 9.76%
78 | COc1ccc2nc(SC)cc(C)c2c1 | 16.5%
79 | COc1ccc(OCCNC(=O)c2cc(C3CC3)nc3c2cnn3C(C)C)cc1 | -25%
80 | O=C(NCCc1ccc2c(c1)OCCO2)c1ccc(F)cc1 | 6.45%
81 | COc1ccc(C(=O)NCCCn2ccnc2)cc1[N+](=O)[O-] | -8.22%
82 | COc1ccccc1CNC(=O)c1ccc(N2CCOCC2)c([N+](=O)[O-])c1 | -26.6%
83 | CCOC(=O)c1cc(-c2ccco2)nc2c1c(C)nn2CCC#N | -17.3%
84 | COC(=O)c1cc(CSc2nc3ccccc3c(=O)n2C)oc1C | 20%
85 | N#CCC(=O)Nc1ncc(Cc2ccccc2Cl)s1 | 8.34%
86 | O=C(Nc1ncnc2sc3c(c12)CCCC3)c1ccncc1 | -14.2%
87 | CCCCn1c(N)c(C(=S)NC(=O)CC(C)(C)C)c(=O)n(C)c1=O | 14%
88 | N#CC(C#N)=NNc1ccc(S(=O)(=O)N2CCCC2)cc1 | -17.8%
